{
  "source": "the supplement of paper PMC10126150",
  "note": "Values marked as one replicate rest on one cluster of the flow cell; about a third of the high ones do not repeat.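 Also: ATP exposure 15 min at 22 °C before imaging.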",
  "data": [
    {"test_system": "ATP", "assay": "switch fluorescence ratio, 500 uM ATP over buffer (Cy3 cluster intensity, sum of 5 cycles each) (fold (ratio)); higher = stronger signal-on switching upon ATP binding; sequences stand for … in TCGTCGGCAGCGTCAGATGTGTATAAGAGACAGTTTTTTTTTTTTTTTTTTTTTTTTT…TC", "conditions": "aptamer strand: ATP DNA aptamer (quencher-CACCTGGGGGAGTATTGCGGAGGAAGG + anchor), 100 nM annealed; ATP concentration: 500 uM; one replicate", "how_it_was_run": "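For every switch-domain sequence, the fluorescence ratio is the mean of per-cluster values, each being summed target-cycle Cy3 intensity over summed buffer-cycle Cy3 intensity. Clusters outside 100-1000 RFU were excluded. On a modified Illumina MiSeq flow-cell, the Cy3-labelled switching-strand clusters were annealed to 100 nM quencher-labelled ATP aptamer, imaged in selection buffer and then after 15 min with 500 uM ATP at 22 °C. Five such cycles were run, with NaOH stripping and re-annealing between them.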", "values": [
      {"sequence": "GCATATGCAG", "switch fluorescence ratio": 1},
      {"sequence": "CTTGCTTCT", "switch fluorescence ratio": 1.04},
      {"sequence": "ATTGCACAGC", "switch fluorescence ratio": 1.03},
      {"sequence": "AAGACGGTTC", "switch fluorescence ratio": 1.01},
      {"sequence": "CAAAACGTCC", "switch fluorescence ratio": 1.45},
      {"sequence": "AGTAAGTGCG", "switch fluorescence ratio": 1.04},
      {"sequence": "GCTGGAGAAG", "switch fluorescence ratio": 0.999},
      {"sequence": "GGCAGTACAG", "switch fluorescence ratio": 0.967},
      {"sequence": "GGCGAAGATT", "switch fluorescence ratio": 0.997},
      {"sequence": "ATAAACCTAT", "switch fluorescence ratio": 1.04},
      {"sequence": "GGTAGGGCTG", "switch fluorescence ratio": 1.02},
      {"sequence": "GAGGTAATAA", "switch fluorescence ratio": 1.64},
      {"sequence": "ACCCGTGGCA", "switch fluorescence ratio": 1.07},
      {"sequence": "GCAGCCCCGT", "switch fluorescence ratio": 1.07},
      {"sequence": "CCGAACTAAC", "switch fluorescence ratio": 2.69},
      {"sequence": "AAATCTTTC", "switch fluorescence ratio": 1.34},
      {"sequence": "TGGGATCTCT", "switch fluorescence ratio": 1},
      {"sequence": "AATTCGTCTT", "switch fluorescence ratio": 0.97},
      {"sequence": "ATAACTCACG", "switch fluorescence ratio": 1.3},
      {"sequence": "ATATCGGGCA", "switch fluorescence ratio": 0.971},
      {"sequence": "GAGTGAGCG", "switch fluorescence ratio": 1.03},
      {"sequence": "GGGATAAGAC", "switch fluorescence ratio": 1.04},
      {"sequence": "CCGTAAGGGG", "switch fluorescence ratio": 1.01},
      {"sequence": "AATGTTGCAG", "switch fluorescence ratio": 0.998},
      {"sequence": "AATTGGGATC", "switch fluorescence ratio": 0.986},
      {"sequence": "ATCCATAGGG", "switch fluorescence ratio": 1.01},
      {"sequence": "CAAATCTACC", "switch fluorescence ratio": 1.18},
      {"sequence": "GGCTACTAAA", "switch fluorescence ratio": 0.971},
      {"sequence": "AAACGTAAAC", "switch fluorescence ratio": 1.26},
      {"sequence": "AGAAGTTCCC", "switch fluorescence ratio": 0.959},
      {"sequence": "TTGAAGATGC", "switch fluorescence ratio": 1.03},
      {"sequence": "ATTGGCCTTT", "switch fluorescence ratio": 1.02},
      {"sequence": "GACCTAACCA", "switch fluorescence ratio": 1.03},
      {"sequence": "AAAGGCCGGT", "switch fluorescence ratio": 0.992},
      {"sequence": "ATCAGAGTGG", "switch fluorescence ratio": 0.975},
      {"sequence": "GGGCAGCTTT", "switch fluorescence ratio": 1},
      {"sequence": "AGACTCTGGA", "switch fluorescence ratio": 1.05},
      {"sequence": "TTAATAATA", "switch fluorescence ratio": 1},
      {"sequence": "AGGGTCAGAG", "switch fluorescence ratio": 0.989},
      {"sequence": "TAGTACTCTT", "switch fluorescence ratio": 1.04},
      {"sequence": "ATGTAAAAAT", "switch fluorescence ratio": 0.986},
      {"sequence": "GGGTCGGCAA", "switch fluorescence ratio": 1.01},
      {"sequence": "CGTTGCGGTT", "switch fluorescence ratio": 0.99},
      {"sequence": "GTCTGCCCCC", "switch fluorescence ratio": 1.46},
      {"sequence": "CAATCATTGG", "switch fluorescence ratio": 0.962},
      {"sequence": "ATAGATTTGG", "switch fluorescence ratio": 0.997},
      {"sequence": "ATACGATAA", "switch fluorescence ratio": 1.14},
      {"sequence": "CGGCGAGGCG", "switch fluorescence ratio": 0.991},
      {"sequence": "ACGTGTTAAC", "switch fluorescence ratio": 1.05},
      {"sequence": "ACGATATCTC", "switch fluorescence ratio": 1.13},
      {"sequence": "TTTGCGTCCC", "switch fluorescence ratio": 1.09},
      {"sequence": "AGAAGGTCCA", "switch fluorescence ratio": 1.03},
      {"sequence": "GATTACCGAG", "switch fluorescence ratio": 1.1},
      {"sequence": "GCTCAAAAGC", "switch fluorescence ratio": 1.02},
      {"sequence": "GTTTTACCGT", "switch fluorescence ratio": 1.04},
      {"sequence": "AGGCGACAAA", "switch fluorescence ratio": 0.993},
      {"sequence": "AAGGGCTCTC", "switch fluorescence ratio": 0.986},
      {"sequence": "GGCGACCA", "switch fluorescence ratio": 1.03},
      {"sequence": "GCAACACGGT", "switch fluorescence ratio": 1.06},
      {"sequence": "GATCGCTGAG", "switch fluorescence ratio": 1.03},
      {"sequence": "CGCAGGTGCA", "switch fluorescence ratio": 2.51},
      {"sequence": "CGCACGGGTT", "switch fluorescence ratio": 0.954},
      {"sequence": "TCCCCACATG", "switch fluorescence ratio": 1.04},
      {"sequence": "CGTCGCTTGG", "switch fluorescence ratio": 1.04},
      {"sequence": "AGATGGTTGA", "switch fluorescence ratio": 1.01},
      {"sequence": "TTAGACGTAT", "switch fluorescence ratio": 1},
      {"sequence": "CGCAGATGAA", "switch fluorescence ratio": 1.01},
      {"sequence": "CCTTGGCGCT", "switch fluorescence ratio": 1.09},
      {"sequence": "CAGGGTCTAG", "switch fluorescence ratio": 0.947},
      {"sequence": "CACTTCCTTG", "switch fluorescence ratio": 1.19},
      {"sequence": "CCGGTCACAC", "switch fluorescence ratio": 1.7},
      {"sequence": "GCCTCATAAC", "switch fluorescence ratio": 1.08},
      {"sequence": "TGGGTCCGAA", "switch fluorescence ratio": 1.04},
      {"sequence": "TGTATGAAG", "switch fluorescence ratio": 0.968},
      {"sequence": "CTCAGTGTAG", "switch fluorescence ratio": 0.989},
      {"sequence": "GCATGGGAAG", "switch fluorescence ratio": 1.01},
      {"sequence": "AATTGCGGGC", "switch fluorescence ratio": 1.01},
      {"sequence": "ATTTAGAACT", "switch fluorescence ratio": 0.965},
      {"sequence": "ATTGGAAAAT", "switch fluorescence ratio": 0.997},
      {"sequence": "TGCCTATTGA", "switch fluorescence ratio": 0.949},
      {"sequence": "AAATCTGATG", "switch fluorescence ratio": 0.994},
      {"sequence": "GAGGTTAGGG", "switch fluorescence ratio": 0.943},
      {"sequence": "TAGCGAGCA", "switch fluorescence ratio": 0.992},
      {"sequence": "GGCGGTAAAC", "switch fluorescence ratio": 1.05},
      {"sequence": "AAATAACGTA", "switch fluorescence ratio": 1.09},
      {"sequence": "CTGTATTGGC", "switch fluorescence ratio": 1.04},
      {"sequence": "TTCAACCTAC", "switch fluorescence ratio": 2.22},
      {"sequence": "TACTTCCGCA", "switch fluorescence ratio": 1.31},
      {"sequence": "TATGTCGTTC", "switch fluorescence ratio": 0.966},
      {"sequence": "TTACACAGC", "switch fluorescence ratio": 1.07},
      {"sequence": "CAAAACAAGA", "switch fluorescence ratio": 0.945},
      {"sequence": "GAATAGGTCC", "switch fluorescence ratio": 0.966},
      {"sequence": "ATGACGTGGC", "switch fluorescence ratio": 0.952},
      {"sequence": "ACGGATGT", "switch fluorescence ratio": 1.01},
      {"sequence": "TAAGGGAACT", "switch fluorescence ratio": 0.958},
      {"sequence": "CTTTCTACAG", "switch fluorescence ratio": 1.04},
      {"sequence": "ATATGCAGG", "switch fluorescence ratio": 1.04},
      {"sequence": "TTACAGTAAA", "switch fluorescence ratio": 1.06},
      {"sequence": "AACGCCGTTG", "switch fluorescence ratio": 1.02},
      {"sequence": "TAGTCACTGT", "switch fluorescence ratio": 1.06}
    ]}
  ]
}
